# According to paper PMC9911399, “Two distinct binding modes provide the RNA-binding protein RbFox with extraordinary sequence specificity”:
# Positions count from the first letter of the chain named. The list shows a part of the results.
# T1: RBFOX1 RRM RbFoxmut (Fox-RRM*) (Homo sapiens, UniProt Q9NWB1 109-208, R118D;E147R;N151S;E152T)
# T1 sequence: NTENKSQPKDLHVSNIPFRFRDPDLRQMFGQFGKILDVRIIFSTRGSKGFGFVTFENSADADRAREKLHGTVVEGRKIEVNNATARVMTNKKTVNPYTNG
# B1: GUAGUUC (DNA:RNA)
# RNA: GGGAGACCGGAAUUCAGAUUGUCCGUAGUUCUUAAAUCCCGUCGUAGCCACCA
# DNA 1: CAATCTGAATTCCGGTCTCCC
# DNA 2: TGGTGGCTACGACGGGATT
# B2: GGCGUUC (DNA:RNA)
# RNA: B1 RNA with U26G, A27C
# DNA 1: CAATCTGAATTCCGGTCTCCC
# DNA 2: TGGTGGCTACGACGGGATT
# B3: GGUGCCU (DNA:RNA)
# RNA: B1 RNA with U26G, A27U, U29C, U30C, C31U
# DNA 1: CAATCTGAATTCCGGTCTCCC
# DNA 2: TGGTGGCTACGACGGGATT
# B4: CCCUGCC (DNA:RNA)
# RNA: B1 RNA with G25C, U26C, A27C, G28U, U29G, U30C
# DNA 1: CAATCTGAATTCCGGTCTCCC
# DNA 2: TGGTGGCTACGACGGGATT
# B5: UUAACGU (DNA:RNA)
# RNA: B1 RNA with G25U, G28A, U29C, U30G, C31U
# DNA 1: CAATCTGAATTCCGGTCTCCC
# DNA 2: TGGTGGCTACGACGGGATT
# B6: CUCUUGC (DNA:RNA)
# RNA: B1 RNA with G25C, A27C, G28U, U30G
# DNA 1: CAATCTGAATTCCGGTCTCCC
# DNA 2: TGGTGGCTACGACGGGATT
# B7: UAAUAAG (DNA:RNA)
# RNA: B1 RNA with G25U, U26A, G28U, U29A, U30A, C31G
# DNA 1: CAATCTGAATTCCGGTCTCCC
# DNA 2: TGGTGGCTACGACGGGATT
# B8: GGAUUCG (DNA:RNA)
# RNA: B1 RNA with U26G, G28U, U30C, C31G
# DNA 1: CAATCTGAATTCCGGTCTCCC
# DNA 2: TGGTGGCTACGACGGGATT
# B9: CCUUAGC (DNA:RNA)
# RNA: B1 RNA with G25C, U26C, A27U, G28U, U29A, U30G
# DNA 1: CAATCTGAATTCCGGTCTCCC
# DNA 2: TGGTGGCTACGACGGGATT
# B10: UAGUGCU (DNA:RNA)
# RNA: GGGAGACCGGAAUUCAGAUUGUCCUAGUGCUUUAAAUCCCGUCGUAGCCACCA
# DNA 1: CAATCTGAATTCCGGTCTCCC
# DNA 2: TGGTGGCTACGACGGGATT
# B11: CUACCGG (DNA:RNA)
# RNA: B1 RNA with G25C, G28C, U29C, U30G, C31G
# DNA 1: CAATCTGAATTCCGGTCTCCC
# DNA 2: TGGTGGCTACGACGGGATT
# B12: AGAGACA (DNA:RNA)
# RNA: B1 RNA with G25A, U26G, U29A, U30C, C31A
# DNA 1: CAATCTGAATTCCGGTCTCCC
# DNA 2: TGGTGGCTACGACGGGATT
# B13: GCGGUCC (DNA:RNA)
# RNA: B1 RNA with U26C, A27G, U30C
# DNA 1: CAATCTGAATTCCGGTCTCCC
# DNA 2: TGGTGGCTACGACGGGATT
# B14: GGACCGC (DNA:RNA)
# RNA: B1 RNA with U26G, G28C, U29C, U30G
# DNA 1: CAATCTGAATTCCGGTCTCCC
# DNA 2: TGGTGGCTACGACGGGATT
# B15: ACGAAGU (DNA:RNA)
# RNA: B10 RNA with U25A, A26C, U28A, G29A, C30G
# DNA 1: CAATCTGAATTCCGGTCTCCC
# DNA 2: TGGTGGCTACGACGGGATT
# B16: CGUGAGG (DNA:RNA)
# RNA: B1 RNA with G25C, U26G, A27U, U29A, U30G, C31G
# DNA 1: CAATCTGAATTCCGGTCTCCC
# DNA 2: TGGTGGCTACGACGGGATT
# B17: AGAGUAU (DNA:RNA)
# RNA: B1 RNA with G25A, U26G, U30A, C31U
# DNA 1: CAATCTGAATTCCGGTCTCCC
# DNA 2: TGGTGGCTACGACGGGATT
# B18: GCCACAG (DNA:RNA)
# RNA: B1 RNA with U26C, A27C, G28A, U29C, U30A, C31G
# DNA 1: CAATCTGAATTCCGGTCTCCC
# DNA 2: TGGTGGCTACGACGGGATT
# B19: CGUGCGG (DNA:RNA)
# RNA: B1 RNA with G25C, U26G, A27U, U29C, U30G, C31G
# DNA 1: CAATCTGAATTCCGGTCTCCC
# DNA 2: TGGTGGCTACGACGGGATT
# B20: CAGGUUG (DNA:RNA)
# RNA: B1 RNA with G25C, U26A, A27G, C31G
# DNA 1: CAATCTGAATTCCGGTCTCCC
# DNA 2: TGGTGGCTACGACGGGATT
# Target: T1, RBFOX1 RRM RbFoxmut (Fox-RRM*)
# Experiment: EMSA; HiTS-Eq, 1 nM pool, 10 min; buffer printed only for the single-RNA assays: 10 mM Tris pH 7.5, 150 mM NaCl, 3.4 mM EDTA, 0.001% NP-40, 30 C
# Conditions: tags: His6 N-terminal (pET28a); label: 5' 32P
# In short: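 Purified RbFox RRM, wild type or mutant, was incubated for 10 min in 50 µL with 1 nM of a 5′-radiolabelled RNA pool carrying 7 randomized nucleotides, whose flanks were annealed to DNA oligonucleotides, over a series of increasing protein concentrations. Unbound RNA was resolved on 8% native PAGE, cut out, reverse-transcribed, barcoded by PCR and sequenced on an Illumina HiSeq 2500. Relative association constants were derived from changes in read counts for each RNA species versus the control reaction and normalised to the cognate motif.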
row,Binder,binding signal
1,B1,0.102 KA relative to UGCAUGU
2,B2,0.157 KA relative to UGCAUGU
3,B3,0.0824 KA relative to UGCAUGU
4,B4,0.249 KA relative to UGCAUGU
5,B5,0.0781 KA relative to UGCAUGU
6,B6,0.128 KA relative to UGCAUGU
7,B7,0.0895 KA relative to UGCAUGU
8,B8,0.161 KA relative to UGCAUGU
9,B9,0.12 KA relative to UGCAUGU
10,B10,0.0945 KA relative to UGCAUGU
11,B11,0.0646 KA relative to UGCAUGU
12,B12,0.0576 KA relative to UGCAUGU
13,B13,0.0908 KA relative to UGCAUGU
14,B14,0.107 KA relative to UGCAUGU
15,B15,0.113 KA relative to UGCAUGU
16,B16,0.105 KA relative to UGCAUGU
17,B17,0.121 KA relative to UGCAUGU
18,B18,0.0788 KA relative to UGCAUGU
19,B19,0.106 KA relative to UGCAUGU
20,B20,0.371 KA relative to UGCAUGU
